Assay results reported in PubChem BioAssay (NCATS).
This list was built around the results that the source calls inconclusive (neither active nor inactive); the mix of calls is not that of the screen. Where the call is inconclusive, the potency comes from a doubtful curve fit. Activity calls are given as the source filed them. Calls follow the shape of the dose curve; as a rule, active = well fitted curve in the direction sought with a large enough effect; inconclusive = small, poorly fitted or top-dose-only effect, or another doubt; inactive = no such curve, though single readings can be large; an effect the other way counts as inactive or inconclusive.

Legend:
[1] = biological target: Rap guanine nucleotide exchange factor 3 (Homo sapiens) (UniProt O95398); assay: Confirmatory qHTS for antagonist of cAMP-regulated guanine nucleotide exchange factor 3 (EPAC1) (AID 1645880); conditions: EPAC1 Rap1B-BODIPY-GDP exchange, fluorescence; activity, negative = inhibition: at 115 µM (top of the series); also: nearly all actives have a fitted effect of over 55% in size;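 as to activity, negative = inhibition: plate controls were DMSO only for no effect and full effect of the ATA control for full effect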
Procedure, shortened: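 Released BODIPY-GDP fluoresces less than Rap1-bound BODIPY-GDP; the signal is followed at 480/540 nm at 5-min intervals over 30 min, after 5 min at room temperature. Reactions contain 100 nM EPAC1, 250 nM RAP1B-BODIPY-GDP and 50 uM GDP; results are normalized to ATA and DMSO.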

[2] = biological target: Rap guanine nucleotide exchange factor 3 (Homo sapiens) (UniProt O95398); assay: Counterscreen qHTS for agonist of cAMP-regulated guanine nucleotide exchange factor 3 (EPAC1) (AID 1645889); conditions: EPAC1 Rap1B-BODIPY-GDP exchange, fluorescence; activation: at 154 µM (top of the series) unless noted; also: nearly all actives have a fitted effect of over 40% in size; as to activation: % of control where 0% means no effect
Procedure, shortened: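 Rap1B–BODIPY-GDP (250 nM) with 50 uM GDP; compounds pin-transferred to 9.74 nM–152 uM final (activator) or from 7.32 nM upwards (inhibitor). Fluorescence Ex/Em 480/540 nm read at 5 and 30 min, then after adding cAMP or buffer, at room temperature.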
Potency is read from the fitted curve at half-maximal effect; tags tell the direction and shape of the fitted curve.

UniProt O95398, sequence (O95398 whole entry, looked up): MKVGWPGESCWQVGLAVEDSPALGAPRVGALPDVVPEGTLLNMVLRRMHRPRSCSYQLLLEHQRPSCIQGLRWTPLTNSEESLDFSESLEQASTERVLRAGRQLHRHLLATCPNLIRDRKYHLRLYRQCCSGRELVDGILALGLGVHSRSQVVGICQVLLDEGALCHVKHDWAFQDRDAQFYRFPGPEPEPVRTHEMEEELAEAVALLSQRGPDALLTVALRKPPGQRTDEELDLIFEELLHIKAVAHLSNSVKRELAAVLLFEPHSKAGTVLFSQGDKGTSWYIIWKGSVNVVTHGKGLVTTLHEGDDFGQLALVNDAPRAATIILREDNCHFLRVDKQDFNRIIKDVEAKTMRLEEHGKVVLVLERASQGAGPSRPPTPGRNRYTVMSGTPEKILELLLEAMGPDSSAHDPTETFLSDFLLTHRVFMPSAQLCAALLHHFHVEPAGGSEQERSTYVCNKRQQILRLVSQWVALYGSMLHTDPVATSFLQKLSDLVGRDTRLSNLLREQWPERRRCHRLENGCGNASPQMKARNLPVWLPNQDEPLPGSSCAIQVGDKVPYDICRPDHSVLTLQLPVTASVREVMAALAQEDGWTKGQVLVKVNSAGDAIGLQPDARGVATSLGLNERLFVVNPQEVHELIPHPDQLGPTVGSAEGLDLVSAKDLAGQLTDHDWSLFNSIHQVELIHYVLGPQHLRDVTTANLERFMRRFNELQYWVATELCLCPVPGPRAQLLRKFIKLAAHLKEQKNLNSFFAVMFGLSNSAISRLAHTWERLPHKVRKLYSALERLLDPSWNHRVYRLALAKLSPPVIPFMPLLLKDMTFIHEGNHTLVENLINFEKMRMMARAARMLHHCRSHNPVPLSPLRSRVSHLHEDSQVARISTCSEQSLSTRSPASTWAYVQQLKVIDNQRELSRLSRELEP

Row | SMILES | Potency [1] | activation [2] | Potency [2]
1 | CCCCC[C@H](C)N1C[C@@H](COCc2ccccc2)Oc2cc(N3CC[C@@H](O)C3)ccc2S1(=O)=O | inconclusive: 20 µM [inhibitor, full curve] | inactive: 5.17% [at 30.8 µM] | –
2 | CCOC(=O)Cc1nn(Cc2ccc(Cl)cc2)c(=O)c2ccccc12 | inconclusive: 23.9 µM [inhibitor, full curve, poor fit] | – | inactive
3 | Cc1nn(-c2ccccc2)c(Cl)c1/C=C1\SC(=S)NC1=O | active: 12 µM | – | inactive
4 | C=C(C)Cn1c(C)cc(C)c(S(=O)(=O)c2ccccc2C)c1=O | inactive | – | inconclusive: 0.199 µM [activator, full curve, poor fit]
5 | O=C1c2cccc3cc([N+](=O)[O-])cc(c23)C(=O)N1/N=C/c1ccc(O)cc1O | inconclusive: 33.8 µM [inhibitor, partial curve] | inconclusive: 37.1% [activator] | –
6 | Clc1ccc(C(c2ccccc2)c2c[nH]c3ccccc23)s1 (configuration not stated) | inconclusive: 95.3 µM [inhibitor, single point] | – | inconclusive: 20 µM [activator, full curve, poor fit]
7 | CCc1ccc(S(=O)(=O)/N=C2\C=C(NS(=O)(=O)c3ccccc3)C(=O)c3ccccc32)cc1 | active: 19 µM | – | inconclusive: 1.26 µM [activator, partial curve, poor fit]
8 | Clc1ccc(-c2nnc(-c3ccco3)nc2N2CCCCC2)cc1 | inconclusive: 50.1 µM [inhibitor, partial curve] | inconclusive: 25.9% [activator] [at 30.8 µM] | –
9 | COc1cc(CNn2cnnc2)ccc1OCC(=O)NC(C)(C)C | inactive | – | inconclusive: 50.1 µM [activator, single point]
10 | COc1ccc(/C=C\c2onc(C)c2S(=O)(=O)N2CCC(C(=O)NCCC(C)C)CC2)cc1 | inactive | inactive: 19.1% [at 30.8 µM] | –
11 | Cc1ccc(C)c(-c2ccc(=O)n(Cc3ccc(F)cc3Cl)n2)c1 | inconclusive: 84.9 µM [inhibitor, partial curve, poor fit] | – | inactive
12 | CC1CCc2[nH]c3ccc(C(=O)N(C)CC(=O)Nc4ccccc4Br)cc3c2C1 (configuration not stated) | inactive | – | inconclusive: 20 µM [activator, partial curve, poor fit]
13 | CCOc1c(S(=O)(=O)N2CCCC2)ccc(Cl)c1Cl | inactive | – | inconclusive: 63.1 µM [activator, partial curve, poor fit]
14 | Cc1cc(SCC(=O)N/N=C/c2ccc(O)c(O)c2)nc2ccccc12 | inconclusive: 28.2 µM [inhibitor, partial curve] | – | inconclusive: 2.51 µM [activator, full curve]
15 | CC(C)CCOP(=O)(c1ccc(N(C)C)cc1)C(O)c1c(Cl)cccc1Cl (configuration not stated) | inconclusive: 3.98 µM [inhibitor, full curve, poor fit] | inactive: 2.73% [at 30.8 µM] | –
16 | CC(=O)c1ccc(OCc2nnn(CC(=O)NS(=O)(=O)c3ccc(C)cc3)c2-c2ccccc2)cc1 | inconclusive: 39.8 µM [inhibitor, partial curve] | inconclusive: 20.8% [activator] [at 30.8 µM] | –
17 | O=S(=O)(c1ccc2c(c1)C(O)c1ccccc1CC2)C(F)(F)F (configuration not stated) | inconclusive: 19 µM [inhibitor, full curve] | – | inconclusive: 15.8 µM [activator, single point]
18 | O=C(Cn1ncc(Cl)c(Cl)c1=O)NC(=O)NC1CCCCC1 | inconclusive: 39.8 µM [inhibitor, partial curve] | inactive: 9.51% [at 30.8 µM] | –
19 | COc1cccc(NC(=O)Cn2cc(C(=O)C3CC3)c3ccccc32)c1 | inactive | inconclusive: 23.6% [activator] | –
20 | CCC(=C(c1ccc(OC)cc1)c1ccc(OC)cc1)c1cn(CC(O)CN2CCN(C)CC2)c2ccccc12 (configuration not stated) | inconclusive: 39.8 µM [inhibitor, partial curve] | inactive: 25.5% [at 30.8 µM] | –
21 | Cc1ccc([C@H]2C(C(=O)O)=CC[C@@H](c3ccc(Cl)c(Cl)c3)N2S(=O)(=O)c2ccc(C)cc2)cc1 | active: 56.2 µM | – | inconclusive: 7.08 µM [activator, partial curve, poor fit]
